{"source": "paper PMC4336329", "about": "(PLoS ONE, 2015)", "note": "In all, about 310,000 compounds went through this assay and about 2,200 (0.71%) showed an effect of 50% or more. The effect is printed as a negative number. Some of the results follow."}
{"biological_target": "human ether-à-go-go-related gene (hERG) potassium channel (human, UniProt Q12809)", "sequence (Q12809 whole entry, looked up)": "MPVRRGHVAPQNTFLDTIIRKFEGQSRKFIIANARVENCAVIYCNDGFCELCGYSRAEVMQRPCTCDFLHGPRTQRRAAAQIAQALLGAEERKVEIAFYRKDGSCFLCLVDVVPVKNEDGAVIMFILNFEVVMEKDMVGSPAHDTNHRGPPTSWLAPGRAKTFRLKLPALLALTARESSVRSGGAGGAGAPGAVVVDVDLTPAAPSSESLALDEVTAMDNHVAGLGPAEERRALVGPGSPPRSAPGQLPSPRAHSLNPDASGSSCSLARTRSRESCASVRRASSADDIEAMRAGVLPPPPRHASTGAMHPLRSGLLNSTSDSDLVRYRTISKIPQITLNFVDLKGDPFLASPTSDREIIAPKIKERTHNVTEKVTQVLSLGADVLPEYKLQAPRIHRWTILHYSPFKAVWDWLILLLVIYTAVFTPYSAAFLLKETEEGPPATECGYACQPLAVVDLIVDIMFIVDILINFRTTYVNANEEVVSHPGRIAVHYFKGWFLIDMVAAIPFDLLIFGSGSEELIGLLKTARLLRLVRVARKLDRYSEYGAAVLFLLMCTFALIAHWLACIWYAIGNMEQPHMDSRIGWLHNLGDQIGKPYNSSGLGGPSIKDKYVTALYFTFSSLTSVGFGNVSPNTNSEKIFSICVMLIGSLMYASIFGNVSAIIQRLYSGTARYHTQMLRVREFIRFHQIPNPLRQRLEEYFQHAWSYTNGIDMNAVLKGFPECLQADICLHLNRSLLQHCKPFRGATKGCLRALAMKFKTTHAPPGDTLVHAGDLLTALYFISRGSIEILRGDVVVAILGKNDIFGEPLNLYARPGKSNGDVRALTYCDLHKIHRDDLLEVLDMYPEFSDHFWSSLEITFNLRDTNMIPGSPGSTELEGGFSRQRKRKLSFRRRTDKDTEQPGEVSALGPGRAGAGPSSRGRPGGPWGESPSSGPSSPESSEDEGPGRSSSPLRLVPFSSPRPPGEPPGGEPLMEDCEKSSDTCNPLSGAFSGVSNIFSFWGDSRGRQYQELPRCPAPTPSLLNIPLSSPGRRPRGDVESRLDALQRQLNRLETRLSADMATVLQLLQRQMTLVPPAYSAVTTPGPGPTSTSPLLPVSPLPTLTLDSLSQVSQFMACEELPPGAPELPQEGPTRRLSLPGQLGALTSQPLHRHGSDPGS", "test": "primary screen, population patch clamp on CHO cells stably expressing hERG", "units": {"hERG current change (%, negative = inhibition) at 1uM": "%"}}
{"smiles": "O=C1C=C(NCc2ccc(Cl)cc2)CC(c2ccco2)C1", "note": "(stereo not shown)", "hERG current change (%, negative = inhibition) at 1uM": -91.3}
{"smiles": "CCOc1ccc(/C=C2\\SC(=S)N(NS(=O)(=O)c3ccc(C)cc3)C2=O)cc1OC", "hERG current change (%, negative = inhibition) at 1uM": 11.3}
{"smiles": "CSc1ccccc1C(=O)NCCSc1ccc(C)cc1", "hERG current change (%, negative = inhibition) at 1uM": 6.56}
{"smiles": "CC(C(=O)O)N1C(=O)/C(=C/c2cccn2C)SC1=S", "note": "(stereo not shown)", "hERG current change (%, negative = inhibition) at 1uM": 2.92}
{"smiles": "CC(=O)NC1CCN(CC(=O)Nc2cccc([N+](=O)[O-])c2)CC1", "hERG current change (%, negative = inhibition) at 1uM": 1.66}
{"smiles": "CC1CC(C)CN(S(=O)(=O)c2ccc(C(=O)Nc3nnc(-c4cccs4)o3)cc2)C1", "note": "(stereo not shown)", "hERG current change (%, negative = inhibition) at 1uM": 5.29}
{"smiles": "O=C(c1cccc(C(F)(F)F)c1)N1CCC(O)(CS(=O)(=O)Cc2ccccc2Cl)CC1", "hERG current change (%, negative = inhibition) at 1uM": 7.38}
{"smiles": "CCc1cccc2sc(N(CCCN3CCOCC3)C(=O)CS(=O)(=O)c3ccccc3)nc12.Cl", "hERG current change (%, negative = inhibition) at 1uM": 3.41}
{"smiles": "COc1cc(Cl)c(CC(=O)c2c[nH]c3ccccc23)cc1OC", "hERG current change (%, negative = inhibition) at 1uM": 15.3}
{"smiles": "Cc1nc2c(C(=O)NCc3ccccc3)c[nH]n2c(=O)c1Cl", "hERG current change (%, negative = inhibition) at 1uM": 20.4}
{"smiles": "COc1ccccc1C(=O)NC(=O)COC(=O)c1ccc(Cl)cc1[N+](=O)[O-]", "hERG current change (%, negative = inhibition) at 1uM": 17.2}
{"smiles": "COc1ccc(NC(=O)CSc2nnc(Cc3cccn3C)n2-c2ccc(F)cc2)cc1OC", "hERG current change (%, negative = inhibition) at 1uM": 10.6}
{"smiles": "COc1cc(O)cc2occ(-c3ccc(O)cc3)c(=O)c12", "hERG current change (%, negative = inhibition) at 1uM": -4.79}
{"smiles": "CC(C)(C)OC(=O)N1CCC(c2c(C(=O)N3CCN(C4CCCCC4)CC3)cnn2-c2ccc(F)cc2)CC1", "hERG current change (%, negative = inhibition) at 1uM": -26.1}
{"smiles": "O=C1NCCN1CCNS(=O)(=O)c1ccccc1[N+](=O)[O-]", "hERG current change (%, negative = inhibition) at 1uM": 13.8}
{"smiles": "CC(C)CC1(C(=O)NCCN2CCOCC2)C=CCN1C(=O)c1ccccc1", "note": "(stereo not shown)", "hERG current change (%, negative = inhibition) at 1uM": 15.2}
{"smiles": "c1ccc(-c2nnc(OCc3cccnc3)c3ccccc23)cc1", "hERG current change (%, negative = inhibition) at 1uM": -9.76}
{"smiles": "CC(CC(=O)NNC(=O)c1ccncc1)c1ccccc1", "note": "(stereo not shown)", "hERG current change (%, negative = inhibition) at 1uM": 15.6}
{"smiles": "Cc1cc(C)n(-c2nnc(NCc3ccc(Cl)cc3)nn2)n1", "hERG current change (%, negative = inhibition) at 1uM": 6.73}
{"smiles": "COc1ccc(OCC(=O)Nc2ccccc2OC(F)F)cc1", "hERG current change (%, negative = inhibition) at 1uM": -5.46}
{"smiles": "CCN=C(Nc1ccc(Cl)cc1)c1cccnc1", "hERG current change (%, negative = inhibition) at 1uM": -3.37}
{"smiles": "O=[N+]([O-])c1ccc(SCc2c(F)cccc2Cl)nc1", "hERG current change (%, negative = inhibition) at 1uM": 10.5}
{"smiles": "Cc1cc(C)nc(/N=C2\\NC(=O)CC(C(=O)O)N2c2ccc(Cl)cc2Cl)n1", "note": "(stereo not shown)", "hERG current change (%, negative = inhibition) at 1uM": 2.9}
{"smiles": "CNc1oc(-c2ccc(OCc3ccccc3)cc2)nc1C#N", "hERG current change (%, negative = inhibition) at 1uM": 12.5}
{"smiles": "Cc1cc(C)n(-c2nc3ccccc3nc2N2CCN(C(=O)c3ccccc3)CC2)n1", "hERG current change (%, negative = inhibition) at 1uM": -2.11}
{"smiles": "O=[N+]([O-])c1ccc(-c2cn3c(n2)SCC3)cc1", "hERG current change (%, negative = inhibition) at 1uM": 1.97}
{"smiles": "CC1CCC(NC(=O)CN(C)S(=O)(=O)c2cnc[nH]2)CC1", "note": "(stereo not shown)", "hERG current change (%, negative = inhibition) at 1uM": 9.37}
{"smiles": "Cc1cc(C)c(S(=O)(=O)N2CCCCC2)c(C)c1N(C)S(=O)(=O)c1ccccc1", "hERG current change (%, negative = inhibition) at 1uM": 9.46}
{"smiles": "COCCn1c(C)cc(C(=O)COC(=O)CNC(=O)c2ccccc2)c1C", "hERG current change (%, negative = inhibition) at 1uM": 11.2}
{"smiles": "COc1ccc(-c2nnc(NC(=O)C(C)C)s2)c(OC)c1", "hERG current change (%, negative = inhibition) at 1uM": 13.3}
{"smiles": "COc1cc(NC(=O)C2CC(c3cccc(Br)c3)=NO2)cc(OC)c1OC", "note": "(stereo not shown)", "hERG current change (%, negative = inhibition) at 1uM": 1.07}
{"smiles": "Cc1ccc(CNC(=O)CCCn2nc(C)n3ccnc3c2=O)cc1", "hERG current change (%, negative = inhibition) at 1uM": 15.1}
{"smiles": "CCCCC(=O)/C=C/n1c(=S)oc2ccccc21", "hERG current change (%, negative = inhibition) at 1uM": 19.7}
{"smiles": "CC(Sc1ccccc1)C(=O)N1CCN(S(=O)(=O)c2ccccc2C(F)(F)F)CC1", "note": "(stereo not shown)", "hERG current change (%, negative = inhibition) at 1uM": -1.7}
{"smiles": "COc1cccc(NC(=O)c2ccc(S(=O)(=O)N3CCCC3)cc2)c1", "hERG current change (%, negative = inhibition) at 1uM": 9.94}
{"smiles": "Cc1nc(-c2ccc(C(=O)Nc3cc(S(N)(=O)=O)ccc3C)cc2)cs1", "hERG current change (%, negative = inhibition) at 1uM": 9.34}
{"smiles": "COc1ccc(CN2CCN(C(C)C)C(CCO)C2)cc1Cn1cncn1", "note": "(stereo not shown)", "hERG current change (%, negative = inhibition) at 1uM": 13.8}
{"smiles": "Cc1cccc(OCCOC(=O)c2c(-c3ccccc3)noc2C)c1", "hERG current change (%, negative = inhibition) at 1uM": 8.36}
{"smiles": "Nc1nc(-c2nc3ccccc3[nH]2)cs1", "hERG current change (%, negative = inhibition) at 1uM": 8.22}
{"smiles": "Cc1cccc2cc(CN(Cc3cccs3)C3(c4nnnn4C4CCCC4)CCCC3)c(=O)[nH]c12", "hERG current change (%, negative = inhibition) at 1uM": -1.01}
{"smiles": "Cc1c(N=Cc2cccs2)c(=O)n(-c2ccccc2)n1C", "hERG current change (%, negative = inhibition) at 1uM": 16.5}
{"smiles": "O=C(N/N=C1/CCS(=O)(=O)c2ccc(F)cc21)c1ccccn1", "hERG current change (%, negative = inhibition) at 1uM": 3.33}
{"smiles": "Cc1cc2nc(-c3ccc[nH]c3=O)n(Cc3ccccc3F)c2cc1C", "hERG current change (%, negative = inhibition) at 1uM": 6.46}
